According to PubChem BioAssay AID463173 (ICCB-Longwood Screening Facility, Harvard Medical School, 2010):
The whole screen tested about 52,000 compounds, of which about 4,300 (8.3%) were called active. Rule as the data show it: active = survival mostly below about 52% (no sharp cut-off); inactive = mostly above about 56%. The list shows a part of the results.

The compounds below were run on DeltatarO mutant (assay: S. aureus survival, RN4220 and DeltatarO strains – OD600, teichoic acid synthesis inhibitors, primary screen (AID 463173)). Details: S. aureus RN4220 wild type/DeltatarO growth, OD600, 18 h, stronger effect = lower value, screened at 18.75 µg/mL (by protocol).
`Cc1ccc(NC(=O)N2CCN3CCCCC3C2)cc1F` (stereo not given) was tested, and the survival was inactive: 124%.
For `COc1ccccc1CNC(=O)c1ccc2c(c1)nnn2C1CCCC1`, the survival was inactive: 124%.
`COc1ccccc1NC(=O)Cn1cc(C(=O)c2ccncc2)c(=O)c2cc(C)ccc21` was tested, and the survival was inactive: 117%.
`COc1ccc(Cl)cc1NC(=O)C1CCN(S(=O)(=O)c2ccc3c(c2)CCCN3C(=O)C2CCC2)CC1` was tested, and the survival was inactive: 90%.
For `Cc1cc(=O)[nH]c2nnc(SCC(=O)Nc3ccc(F)cc3F)n12`, the survival was inactive: 86%.
For `Cc1ccc(C)c(NC(=O)N2CCc3cc(S(=O)(=O)N4CCC(C)CC4)ccc32)c1`, the survival was inactive: 85%.
`Cc1ccc2nc(-c3cccc(Cl)c3)c(Nc3ccc4c(c3)OCO4)n2c1` was tested, and the survival was inactive: 75%.
For `CN1C(=O)/C(=C2\SC(=S)N(C(CC(=O)O)C(=O)O)C2=O)c2ccccc21` (stereo not given), the survival was inactive: 79%.
In the case of `C=CCc1ccccc1OCCn1c(C2CC(=O)N(Cc3ccc(F)cc3)C2)nc2ccccc21` (stereo not given), the survival is reported as active: 0%.
For `CC(Oc1ccccc1)C(=O)OCc1cc(=O)n2nc(C(C)C)sc2n1` (stereo not given), the survival was inactive: 115%.
In the case of `COc1ccccc1CCNC(=O)C(=O)NCC(c1cccs1)S(=O)(=O)c1ccc(F)cc1` (stereo not given), the survival is reported as inactive: 95%.
In the case of `COc1ccccc1C(=O)N1c2ccccc2C(C)(c2ccc(Cl)cc2)CC1(C)C` (stereo not given), the survival is reported as active: 0%.
For `COC(=O)CSc1nc2sc3c(c2c(=O)n1Cc1ccccc1)CCC(C(C)(C)C)C3` (stereo not given), the survival was inactive: 66%.
In the case of `COc1ccc(-c2c3c(nc4sc(C(=O)Nc5ccccc5F)c(N)c24)CC(C)(C)CC3=O)cc1`, the survival is reported as inactive: 135%.
With `CC(C)NC(=O)C(C)Oc1ccccc1` (stereo not given) the survival was inactive: 93%.
For `CCc1ccc(CNC(=O)c2nn(-c3ccc(OC)c(Cl)c3)c(=O)c3c2c2ccccc2n3C)cc1`, the survival was inactive: 104%.
`CCN(Cc1ccccc1)C(=O)CN1C(=O)CSc2ccc(S(=O)(=O)N(CC)CC)cc21` was tested, and the survival was inactive: 87%.
`COc1ccc(CNn2cnnc2SCc2ccc(F)cc2)cc1OC` was tested, and the survival was inactive: 73%.
With `COc1ccc(NC(=O)c2cc(S(=O)(=O)N3CCCCC3)cn2C)cc1Cl` the survival was inactive: 78%.
For `O=C(Nc1ccc(S(=O)(=O)N2CCCCC2c2cccnc2)cc1)c1ccc(F)cc1` (stereo not given), the survival was inactive: 91%.
With `CCc1nnc2c3ccccc3nc(Nc3ccc(F)c(Cl)c3)n12` the survival was inactive: 62%.
`CCCC(CCC)C(=O)Nc1nnc2n1CCS2` was tested, and the survival was inactive: 82%.
With `CN(C)c1ccc(-c2noc(C3CC(=O)N(c4ccc5c(c4)OCCO5)C3)n2)cc1` (stereo not given) the survival was inactive: 92%.
In the case of `Cc1cccc(N(C)C(=O)c2cc(S(=O)(=O)N3CCCCC3)c[nH]2)c1`, the survival is reported as inactive: 72%.
`O=C(Nc1ccc(Cl)cc1)c1cc2c(Cl)nc3ccccc3c2s1` was tested, and the survival was inactive: 94%.
